# Measured values: the supplement of paper PMC8728848
# Some of the results follow.
# Tests used:
# Test in all cases: glycan array binding signal (z-score within array); higher = stronger binding
# Settings in all cases: glycan notation: IUPAC condensed, linker removed
# [1] = biological target: Neu5Gc(a2-8)Neu5Gc(a2-3)Gal(b1-4)GlcNAc(b1-3)Gal(b1-4)GlcNAc
# How it was run: (§1)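 Glycan array binding is given as a within-array Z-score, which can be read as non-binding when negative. The arrays, 3228 of them, came from the Consortium for Functional Glycomics database and were retained only where the protein sequence was available. Z-scores were averaged across arrays of the same protein sequence at different concentrations or buffers and across linkers.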
# [2] = biological target: Neu5Gc(a2-8)Neu5Gc(a2-6)Gal(b1-4)GlcNAc
# How it was run: as §1
# [3] = biological target: Neu5Gc(b2-6)Gal(b1-4)GlcNAc
# How it was run: as §1
binder,measurement,setting,value
CML1 (Coprinopsis cinerea) (protein) MAIFHTGSELFIITRGPGKLTLLTWGGLNNLRSVIGAIPTENTGVTKWAVSFSHNYTRFSFIWEGQGEACYQIGNGLTRSPVGRSWSSSSTIHWGSSTVITEDVTSVVPGAVNRDKVTTAYALPDNL,glycan array binding signal (z-score),[1],-0.315
same,glycan array binding signal (z-score),[2],-0.341
same,glycan array binding signal (z-score),[3],-0.339
